Test results as given in paper PMC9911399, “Two distinct binding modes provide the RNA-binding protein RbFox with extraordinary sequence specificity”.
Where a chain is given by its changes, count along the chain named. The list shows a part of the results.

T1: RBFOX1 RRM RbFoxmut (Fox-RRM*) (Homo sapiens, UniProt Q9NWB1 109-208, R118D;E147R;N151S;E152T)
T1 sequence: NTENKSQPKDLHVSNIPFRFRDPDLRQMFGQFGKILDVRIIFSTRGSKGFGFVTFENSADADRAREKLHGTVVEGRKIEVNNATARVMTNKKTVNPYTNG

B1: GCCCAAG (DNA:RNA)
RNA: GGGAGACCGGAAUUCAGAUUGUCCGCCCAAGUUAAAUCCCGUCGUAGCCACCA
DNA 1: CAATCTGAATTCCGGTCTCCC
DNA 2: TGGTGGCTACGACGGGATT
B2: CGAUCCU (DNA:RNA)
RNA: GGGAGACCGGAAUUCAGAUUGUCCCGAUCCUUUAAAUCCCGUCGUAGCCACCA
DNA 1: CAATCTGAATTCCGGTCTCCC
DNA 2: TGGTGGCTACGACGGGATT
B3: CAUUGCU (DNA:RNA)
RNA: B2 RNA with G26A, A27U, C29G
DNA 1: CAATCTGAATTCCGGTCTCCC
DNA 2: TGGTGGCTACGACGGGATT
B4: CUUUAUU (DNA:RNA)
RNA: B2 RNA with G26U, A27U, C29A, C30U
DNA 1: CAATCTGAATTCCGGTCTCCC
DNA 2: TGGTGGCTACGACGGGATT
B5: UUCACAG (DNA:RNA)
RNA: B1 RNA with G25U, C26U, C28A, A29C
DNA 1: CAATCTGAATTCCGGTCTCCC
DNA 2: TGGTGGCTACGACGGGATT
B6: UCAGAUU (DNA:RNA)
RNA: B2 RNA with C25U, G26C, U28G, C29A, C30U
DNA 1: CAATCTGAATTCCGGTCTCCC
DNA 2: TGGTGGCTACGACGGGATT
B7: ACUUCCC (DNA:RNA)
RNA: B2 RNA with C25A, G26C, A27U, U31C
DNA 1: CAATCTGAATTCCGGTCTCCC
DNA 2: TGGTGGCTACGACGGGATT
B8: ACGACGG (DNA:RNA)
RNA: B1 RNA with G25A, C27G, C28A, A29C, A30G
DNA 1: CAATCTGAATTCCGGTCTCCC
DNA 2: TGGTGGCTACGACGGGATT
B9: GGCUUCG (DNA:RNA)
RNA: B2 RNA with C25G, A27C, C29U, U31G
DNA 1: CAATCTGAATTCCGGTCTCCC
DNA 2: TGGTGGCTACGACGGGATT
B10: UUUCGCA (DNA:RNA)
RNA: B2 RNA with C25U, G26U, A27U, U28C, C29G, U31A
DNA 1: CAATCTGAATTCCGGTCTCCC
DNA 2: TGGTGGCTACGACGGGATT
B11: CGUAGAA (DNA:RNA)
RNA: B2 RNA with A27U, U28A, C29G, C30A, U31A
DNA 1: CAATCTGAATTCCGGTCTCCC
DNA 2: TGGTGGCTACGACGGGATT
B12: UUUUUGA (DNA:RNA)
RNA: B2 RNA with C25U, G26U, A27U, C29U, C30G, U31A
DNA 1: CAATCTGAATTCCGGTCTCCC
DNA 2: TGGTGGCTACGACGGGATT
B13: GAUAACG (DNA:RNA)
RNA: B1 RNA with C26A, C27U, C28A, A30C
DNA 1: CAATCTGAATTCCGGTCTCCC
DNA 2: TGGTGGCTACGACGGGATT
B14: AGGUUCC (DNA:RNA)
RNA: B2 RNA with C25A, A27G, C29U, U31C
DNA 1: CAATCTGAATTCCGGTCTCCC
DNA 2: TGGTGGCTACGACGGGATT
B15: AGCUCUC (DNA:RNA)
RNA: B2 RNA with C25A, A27C, C30U, U31C
DNA 1: CAATCTGAATTCCGGTCTCCC
DNA 2: TGGTGGCTACGACGGGATT
B16: UGGGCGA (DNA:RNA)
RNA: B2 RNA with C25U, A27G, U28G, C30G, U31A
DNA 1: CAATCTGAATTCCGGTCTCCC
DNA 2: TGGTGGCTACGACGGGATT
B17: ACCGGCC (DNA:RNA)
RNA: B1 RNA with G25A, C28G, A29G, A30C, G31C
DNA 1: CAATCTGAATTCCGGTCTCCC
DNA 2: TGGTGGCTACGACGGGATT
B18: AGAGCAU (DNA:RNA)
RNA: B2 RNA with C25A, U28G, C30A
DNA 1: CAATCTGAATTCCGGTCTCCC
DNA 2: TGGTGGCTACGACGGGATT
B19: UAGCAUG (DNA:RNA)
RNA: B1 RNA with G25U, C26A, C27G, A30U
DNA 1: CAATCTGAATTCCGGTCTCCC
DNA 2: TGGTGGCTACGACGGGATT
B20: GCUGGAG (DNA:RNA)
RNA: B1 RNA with C27U, C28G, A29G
DNA 1: CAATCTGAATTCCGGTCTCCC
DNA 2: TGGTGGCTACGACGGGATT
B21: CAAGCUG (DNA:RNA)
RNA: B2 RNA with G26A, U28G, C30U, U31G
DNA 1: CAATCTGAATTCCGGTCTCCC
DNA 2: TGGTGGCTACGACGGGATT
B22: AUAGAAA (DNA:RNA)
RNA: B1 RNA with G25A, C26U, C27A, C28G, G31A
DNA 1: CAATCTGAATTCCGGTCTCCC
DNA 2: TGGTGGCTACGACGGGATT
B23: UGCUCGA (DNA:RNA)
RNA: B2 RNA with C25U, A27C, C30G, U31A
DNA 1: CAATCTGAATTCCGGTCTCCC
DNA 2: TGGTGGCTACGACGGGATT
B24: CUAAGUC (DNA:RNA)
RNA: B2 RNA with G26U, U28A, C29G, C30U, U31C
DNA 1: CAATCTGAATTCCGGTCTCCC
DNA 2: TGGTGGCTACGACGGGATT
B25: AAGGAAG (DNA:RNA)
RNA: B1 RNA with G25A, C26A, C27G, C28G
DNA 1: CAATCTGAATTCCGGTCTCCC
DNA 2: TGGTGGCTACGACGGGATT
B26: ACAGGAU (DNA:RNA)
RNA: B2 RNA with C25A, G26C, U28G, C29G, C30A
DNA 1: CAATCTGAATTCCGGTCTCCC
DNA 2: TGGTGGCTACGACGGGATT
B27: GACCUAU (DNA:RNA)
RNA: B1 RNA with C26A, A29U, G31U
DNA 1: CAATCTGAATTCCGGTCTCCC
DNA 2: TGGTGGCTACGACGGGATT
B28: UUAUAAC (DNA:RNA)
RNA: B2 RNA with C25U, G26U, C29A, C30A, U31C
DNA 1: CAATCTGAATTCCGGTCTCCC
DNA 2: TGGTGGCTACGACGGGATT
B29: ACUUUUU (DNA:RNA)
RNA: B2 RNA with C25A, G26C, A27U, C29U, C30U
DNA 1: CAATCTGAATTCCGGTCTCCC
DNA 2: TGGTGGCTACGACGGGATT
B30: ACCGCUC (DNA:RNA)
RNA: B1 RNA with G25A, C28G, A29C, A30U, G31C
DNA 1: CAATCTGAATTCCGGTCTCCC
DNA 2: TGGTGGCTACGACGGGATT
B31: GAUAUUA (DNA:RNA)
RNA: B1 RNA with C26A, C27U, C28A, A29U, A30U, G31A
DNA 1: CAATCTGAATTCCGGTCTCCC
DNA 2: TGGTGGCTACGACGGGATT

biological target: T1, RBFOX1 RRM RbFoxmut (Fox-RRM*); experiment: EMSA; HiTS-Eq, 1 nM pool, 10 min; buffer printed only for the single-RNA assays: 10 mM Tris pH 7.5, 150 mM NaCl, 3.4 mM EDTA, 0.001% NP-40, 30 C; conditions: tags: His6 N-terminal (pET28a); label: 5' 32P
How it was run: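 Purified wild-type or mutant RbFox RRM at increasing concentrations was equilibrated with 1 nM of 5′-radiolabelled RNA carrying 7 randomized nucleotides for 10 min in 50 µL. Unbound RNA was separated by 8% native PAGE and sequenced. Relative association constants came from read-count changes of each RNA species compared with the control reaction, normalised to the cognate motif.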

Row | Binder | binding signal
1 | B1 | 0.104 KA relative to UGCAUGU
2 | B2 | 0.0439 KA relative to UGCAUGU
3 | B3 | 0.126 KA relative to UGCAUGU
4 | B4 | 0.117 KA relative to UGCAUGU
5 | B5 | 0.0761 KA relative to UGCAUGU
6 | B6 | 0.0844 KA relative to UGCAUGU
7 | B7 | 0.062 KA relative to UGCAUGU
8 | B8 | 0.095 KA relative to UGCAUGU
9 | B9 | 0.171 KA relative to UGCAUGU
10 | B10 | 0.151 KA relative to UGCAUGU
11 | B11 | 0.134 KA relative to UGCAUGU
12 | B12 | 0.0679 KA relative to UGCAUGU
13 | B13 | 0.0556 KA relative to UGCAUGU
14 | B14 | 0.112 KA relative to UGCAUGU
15 | B15 | 0.0391 KA relative to UGCAUGU
16 | B16 | 0.118 KA relative to UGCAUGU

Row | Binder | binding signal
17 | B17 | 0.128 KA relative to UGCAUGU
18 | B18 | 0.0996 KA relative to UGCAUGU
19 | B19 | 0.819 KA relative to UGCAUGU
20 | B20 | 0.114 KA relative to UGCAUGU
21 | B21 | 0.0763 KA relative to UGCAUGU
22 | B22 | 0.13 KA relative to UGCAUGU
23 | B23 | 0.186 KA relative to UGCAUGU
24 | B24 | 0.0682 KA relative to UGCAUGU
25 | B25 | 0.113 KA relative to UGCAUGU
26 | B26 | 0.0995 KA relative to UGCAUGU
27 | B27 | 0.119 KA relative to UGCAUGU
28 | B28 | 0.0913 KA relative to UGCAUGU
29 | B29 | 0.0998 KA relative to UGCAUGU
30 | B30 | 0.0667 KA relative to UGCAUGU
31 | B31 | 0.0958 KA relative to UGCAUGU
